Laboratory results from PubChem BioAssay AID1460 (National Center for Advancing Translational Sciences (NCATS), 2008).
Values joined by “and” are separate entries in the source; they are usually repeats but may differ in a detail not shown here. Equal values may be shown once. Screen size: about 270,000 compounds; about 5,800 (2.1%) were called active. The inconclusive results got no clear call from the source; some entries with a clear call stand among them for comparison. The call rests on the fitted dose curve; in most records, active means well fitted inhibition curve with a large enough effect; inconclusive means small, poorly fitted or top-dose-only effect; inactive means flat fitted curve, though single readings scatter. Where the call is inconclusive, the potency comes from a doubtful curve fit.

Target: Microtubule-associated protein tau (Homo sapiens) (UniProt P10636)
Assay: qHTS for Inhibitors of Tau Fibril Formation, Thioflavin T Binding; further: nearly all actives have a fitted effect of over 55% in size
Conditions: recombinant tau K18 P301L (four-repeat tau fragment), heparin-induced fibrillization, ThT fluorescence; series mostly up to 57.4 µM
Procedure, shortened: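 Recombinant human tau K18 fragment […] carrying P301L, 15 uM unlabeled plus 0.24 uM Alexa 594-labeled, was fibrillized with 20 uM heparin in 100 mM sodium acetate pH 7 for 6 hr at 37 C; 30 uM ThT fluorescence read after 1 hr.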
Potency means the concentration at half of the fitted maximal effect; tags describe the fitted curve by direction and shape.

Chain of UniProt P10636 (P10636 whole entry, looked up): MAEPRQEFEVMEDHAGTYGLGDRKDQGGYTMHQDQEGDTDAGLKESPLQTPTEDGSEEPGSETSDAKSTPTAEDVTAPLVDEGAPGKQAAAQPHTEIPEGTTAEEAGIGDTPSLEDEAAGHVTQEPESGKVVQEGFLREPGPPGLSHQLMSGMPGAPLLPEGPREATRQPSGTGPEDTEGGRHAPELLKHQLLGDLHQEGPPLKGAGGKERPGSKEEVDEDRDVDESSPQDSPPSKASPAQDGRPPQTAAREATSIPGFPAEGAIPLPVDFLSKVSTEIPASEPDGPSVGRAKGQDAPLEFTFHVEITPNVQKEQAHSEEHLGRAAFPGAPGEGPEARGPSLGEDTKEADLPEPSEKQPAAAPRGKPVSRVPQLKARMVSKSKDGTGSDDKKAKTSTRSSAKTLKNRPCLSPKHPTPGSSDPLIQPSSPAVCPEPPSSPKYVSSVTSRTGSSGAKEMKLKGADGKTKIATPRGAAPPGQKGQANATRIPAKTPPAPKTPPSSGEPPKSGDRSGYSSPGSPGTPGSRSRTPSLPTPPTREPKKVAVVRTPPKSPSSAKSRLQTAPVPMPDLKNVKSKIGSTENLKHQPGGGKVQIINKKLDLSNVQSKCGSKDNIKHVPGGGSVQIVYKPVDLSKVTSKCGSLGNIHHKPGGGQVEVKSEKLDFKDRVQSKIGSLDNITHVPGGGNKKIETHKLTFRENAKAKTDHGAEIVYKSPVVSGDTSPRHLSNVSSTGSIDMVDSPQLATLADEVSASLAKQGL

SMILES	Potency
CCOC(=O)c1cc2sccc2n1Cc1ccc(C#N)cc1	inconclusive: 15.8 µM [inhibitor, partial curve, poor fit]
CCN1CCN(c2cc(C)c3cc(NC(=S)N4CCN(c5ccccc5)CC4)ccc3n2)CC1	inconclusive: 7.94 µM [inhibitor, partial curve]
C/C(=N\Nc1ccc(C#N)cc1[N+](=O)[O-])c1ccc(O)cc1	inconclusive: 0.501 µM [inhibitor, full curve]
NS(=O)(=O)c1ccc(NC(=S)NC(=O)c2ccc(-c3ccccc3)cc2)cc1	inactive
COc1ccc([C@H]2[C@H](C(=O)C(C)(C)C)N3N=Cc4ccccc4C3[C@]23N=C(c2ccccc2)OC3=O)cc1OC (stereo partly drawn)	inconclusive: 17.8 µM [inhibitor, single point]
O=[N+]([O-])c1c(C(Cl)Cl)nn(-c2ccccc2)c1N1CCCC1	inconclusive: 28.2 µM [inhibitor, partial curve]
COc1ccc(-c2ccc(/C=C3\C(=O)N(c4ccccc4)N=C3c3ccccc3)o2)c([N+](=O)[O-])c1	inconclusive: 10 µM [inhibitor, partial curve]
COc1ccccc1C(=O)Nc1cc2cc(Cl)ccc2oc1=O	inconclusive: 4.47 µM [inhibitor, partial curve]
FC(F)Oc1ccc(/C=N/c2c(-c3ccc(OC(F)F)cc3)nc3n2CCS3)cc1	inconclusive: 2.82 µM [inhibitor, partial curve]
CCc1ccc(OCCNC(=O)OCc2ccccc2)cc1	inconclusive: 35.5 µM [inhibitor, single point]
CCC(C(=O)OCC(=O)NC(=O)NC(C)(C)C)c1ccccc1 (stereo not drawn)	inactive
Cc1ccc(-c2noc(CCC(=O)NCCN3CCc4ccccc4C3)n2)cc1	inactive
COc1ccc(S(=O)(=O)n2nc(OC(=O)c3ccco3)cc2N)cc1	inconclusive: 17.8 µM [inhibitor, partial curve]
COC(=O)c1cc(-c2c[nH]c3ccccc23)n[nH]1	inconclusive: 39.8 µM [inhibitor, single point]
O=Cc1ccccc1OCCOc1ccccc1C=O	inactive
CCC(C)NC(=O)c1cccc(NC(=O)c2nsc3ccccc23)c1 (stereo not drawn)	inactive
COC(=O)c1c(NC(=O)c2cccc([N+](=O)[O-])c2)sc(C(N)=O)c1C	inconclusive: 10 µM [inhibitor, partial curve]
Cc1cc(C)c(C(=O)COC(=O)c2ccc([N+](=O)[O-])o2)cc1C	inconclusive: 22.4 µM [inhibitor, partial curve]
COc1ccc(NC(=O)c2ccc(CN3CCN(c4ccccc4)CC3)cc2)cc1OC	inconclusive: 22.4 µM [inhibitor, partial curve]
Cc1ccc(N(CC(=O)Nc2ccccc2-c2ccccc2)S(=O)(=O)c2ccccc2)cc1	inactive
CCC(=O)N1N=C(c2ccc(NS(C)(=O)=O)cc2)CC1c1ccc(N(C)C)cc1 (stereo not drawn)	inactive
Cn1c(=O)[nH]c2cc(-c3noc(-c4cccc(Cl)c4)n3)ccc21	inconclusive: 6.31 µM [inhibitor, full curve]

SMILES	Potency
Cc1ccc(NCC(=O)N/N=C\c2cccc(O)c2)cc1	inconclusive: 12.6 µM [inhibitor, partial curve]
C[C@@H]1CC2C3CCC4=CC(=O)C=CC4(C)[C@@]3(F)[C@@H](O)CC2(C)[C@@]1(O)C(=O)CO (stereo partly drawn)	inactive
CCn1c2ccccc2c2cc(NC(=O)COc3ccccc3)ccc21	inconclusive: 4.47 µM [inhibitor, full curve, poor fit]
COc1cccc(OC)c1C(=O)NNC(=O)c1cccc(COc2ccc3c(c2)CCC3)c1	inconclusive: 0.891 µM [inhibitor, full curve]
CC1(OC(=O)C2CCCC2)C(=O)C=C2C=C(c3ccsc3)N(C3CCCC3)C=C2C1=O (stereo not drawn)	inconclusive: 12.6 µM [inhibitor, partial curve] and inconclusive: 3.55 µM [inhibitor, single point]
CCOC(=O)/C=C1\SCC(=O)N1CCOc1cccc(Br)c1	inconclusive: 31.6 µM [inhibitor, partial curve]
COc1cccc(CNC(=O)c2cc3c(=O)oc4ccc(C)cc4c3s2)c1	inactive
O=C(N/N=C/c1cccc([N+](=O)[O-])c1)c1ccc(Br)cc1	inconclusive: 7.08 µM [inhibitor, partial curve]
CN(C)c1ccc(C2Nc3ccccc3C(=O)N2CCCN2CCOCC2)cc1 (stereo not drawn)	inconclusive: 4.47 µM [inhibitor, partial curve]
Cc1ccc2onc(CC(=O)Nc3ccc(C(C)C)cc3)c2c1	inactive
O=c1c2oc3ccccc3c2n(Cc2ccccc2F)c(=O)n1Cc1ccccc1	inactive
Fc1ccc(Oc2ccc3nnc(C(F)(F)F)n3n2)cc1	inactive
COc1ccc(N/C(C)=C/C(=S)Nc2ccccc2)cc1	inconclusive: 22.4 µM [inhibitor, single point]
CCN(Cc1ccccc1)S(=O)(=O)c1ccc2c(c1)CC(C)N2C(=O)C1CCC1 (stereo not drawn)	inactive
O=C(O)c1cccc(N2C(=O)/C(=C/c3ccc(SCc4ccc(Cl)cc4)o3)SC2=S)c1	active: 15.8 µM
CCOC(=O)N1CCN(C(c2cccnc2)c2ccc3cccnc3c2O)CC1 (stereo not drawn)	inconclusive: 20 µM [inhibitor, partial curve]
Cc1cccc(N=Cc2cc3c(cc2[N+](=O)[O-])OCO3)c1	active: 10 µM
Cc1c(-n2c(O)c(C3=c4ccccc4=NC3=O)sc2=S)c(=O)n(-c2ccccc2)n1C	inconclusive: 31.6 µM [inhibitor, single point]
CCCCCCCCCCCCCCC(C(=O)O)C(O)(CC(=O)OC)C(=O)O (stereo not drawn)	inactive
Oc1ccc(/C=C/c2cc(O)cc(O)c2)cc1	active: 8.91 µM and active: 17.8 µM and active: 10 µM
CC(=O)C1=C(c2ccc(Cl)cc2)N(C(C)=O)n2c(nnc2C2CCCCC2)S1	inconclusive: 15.8 µM [inhibitor, partial curve]
